Measurements: the supplement of paper PMC3334620
Over roughly 33,000 sequences, “E-score (-0.5 to 0.5)” has its median near -0.036; the highest 2% begin near 0.37. Some of the results follow.

Each sequence was assayed against T1, Yer064c (UniProt P40041) (assay: PBM E-score (8-mer binding enrichment) (E-score (-0.5 to 0.5)); higher = stronger / more preferred TF binding; most listed sequences are background and not binding sites). Settings: protein concentration: 200 nM; construct: GST-full length.
T1 sequence: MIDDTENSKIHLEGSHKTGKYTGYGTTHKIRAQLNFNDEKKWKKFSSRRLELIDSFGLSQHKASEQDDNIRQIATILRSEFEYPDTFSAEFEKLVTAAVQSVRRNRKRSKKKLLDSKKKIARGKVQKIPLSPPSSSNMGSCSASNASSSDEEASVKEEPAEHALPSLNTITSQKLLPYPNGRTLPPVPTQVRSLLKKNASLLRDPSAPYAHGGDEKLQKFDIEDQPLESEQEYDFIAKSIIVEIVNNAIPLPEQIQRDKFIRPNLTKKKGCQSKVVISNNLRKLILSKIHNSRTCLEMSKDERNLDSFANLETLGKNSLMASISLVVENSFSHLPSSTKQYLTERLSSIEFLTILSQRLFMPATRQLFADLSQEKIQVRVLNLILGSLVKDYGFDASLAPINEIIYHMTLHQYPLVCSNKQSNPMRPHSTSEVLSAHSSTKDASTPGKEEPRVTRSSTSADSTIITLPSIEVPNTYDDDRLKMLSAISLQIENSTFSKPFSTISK
Procedure, shortened: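 Full-length yeast transcription factors or their DNA-binding domains, GST-tagged and expressed with PURExpress, were applied at about 100-200 nM to universal all-10-mer Agilent arrays. These arrays had been made double-stranded by primer extension on fresh or once-stripped slides. Detection used fluorescent anti-GST, normalisation used masliner, and E-scores for ungapped eight-base words pooled with reverse complements came from the Universal PBM Analysis Suite.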

| Sequence | PBM E-score |
| --- | --- |
| AAAGAGGG | -0.22 |
| TGGATCCA | -0.00353 |
| GGCGAAAC | -0.0459 |
| GTAGATGA | 0.206 |
| AGTGTTAT | -0.0428 |
| AATCTTAG | 0.244 |
| GATCCCAC | -0.0884 |
| ATTTGCGC | -0.111 |
| AAGGAAGT | 0.0788 |
| ATCTTGTG | -0.0245 |
| CCCCGGCC | -0.295 |
| CATAACCG | -0.102 |
| CGCCTCGA | -0.256 |
| ATCCTCAG | 0.0699 |
| AACAAAGC | -0.14 |
| AGTTTCAT | 0.109 |
| CCCCTACA | -0.193 |
| ACGCAAAA | -0.00655 |
| GCAGCATA | -0.172 |
| CCACCGCA | -0.132 |
| TACATTCA | -0.0847 |
| TGACGACA | 0.102 |
| CCCGCGCA | -0.1 |
| GGTTTTAC | -0.144 |
| CCTTCCGA | -0.0766 |

| Sequence | PBM E-score |
| --- | --- |
| TACAGACA | 0.139 |
| GCACTGGC | -0.194 |
| AACGGTAG | -0.0657 |
| ATGCTTAC | -0.233 |
| GATCGTGC | -0.103 |
| CTTCGAAG | -0.129 |
| CACCAGAC | 0.0322 |
| GAAAAGCA | -0.0862 |
| CCGCCGCC | -0.183 |
| GCAAGCAA | -0.0795 |
| AATTGGAG | 0.00265 |
| CAAATTTA | 0.0132 |
| CATGCGAC | 0.153 |
| GAGCACAA | 0.0121 |
| ACTCGTCC | 0.318 |
| GCGCGCGA | 0.0216 |
| ACAGATGT | -0.184 |
| ACTTGGAG | -0.131 |
| AGTCGACT | 0.357 |
| AGGTTTGC | 0.0639 |
| ACTATGGC | 0.138 |
| GGTGCGCA | -0.115 |
| ATTCGACG | -0.00215 |
| ATACCCAC | 0.0958 |
| AGTGTGGA | -0.0452 |

| Sequence | PBM E-score |
| --- | --- |
| TATTCAAA | 0.135 |
| GACGAAAC | -0.0278 |
| ACATTCCC | -0.0936 |
| CTCATCAG | 0.286 |
| GCTTCACC | -0.155 |
| ATGTTTAG | 0.141 |
| TCTCCCAA | 0.112 |
| AGGACCGA | 0.0116 |
| CAGCGTGA | 0.188 |
| AGGATTTA | 0.0196 |
| AGTGTCAT | 0.0731 |
| AAGATAAA | 0.0265 |
| ACGCGAGG | -0.163 |
| AAGCGGTA | -0.24 |
| CCTCTATC | -0.0843 |
| ATGACACC | 0.032 |
| ACTCCTAG | 0.0989 |
| GGGGCTGA | -0.0142 |
| TCGGAACA | 0.0871 |
| AATGGACG | -0.105 |
| GAGCGTCC | -0.254 |
| AGAGTCGC | 0.396 |
| AAGGGCCT | -0.285 |
| ATTTAACG | 0.129 |
| AATGTTGG | -0.231 |

| Sequence | PBM E-score |
| --- | --- |
| GAAACCGC | 0.0639 |
| CGTAGCCC | -0.0851 |
| CCAATGCC | -0.314 |
| ACGTATCT | -0.217 |
| GCACTACA | -0.172 |
| ATCGATTA | 0.246 |
| AATATCTG | -0.166 |
| CACTGGGA | -0.111 |
| TAGTTCCA | 0.0532 |
| AGGGGGGA | -0.362 |
| AATGGTGC | -0.324 |
| ATTCTTCA | 0.118 |
| GACTGATA | 0.239 |
| CGGTACAC | -0.172 |
| ACTAACGC | 0.125 |
| AACAAGAC | 0.14 |
| AGCTCCGC | -0.216 |
| ACTGAACC | 0.0953 |
| CTGATGTC | -0.0215 |
| GGGCATCA | -0.0947 |
| AACGGCGA | -0.0243 |
| ATCTTAAC | 0.156 |
| CGCGCGGC | -0.139 |
| CAAAAAGC | 0.0801 |
| ATTGTCCA | -0.00809 |

| Sequence | PBM E-score |
| --- | --- |
| AGGTTTAG | 0.0773 |
| AACAATTC | 0.00365 |
| CAGGTCTC | -0.119 |
| TATCCCGA | -0.0789 |
| AATTAGTG | 0.0657 |
| CCTGGCAC | -0.304 |
| CTATTAAA | 0.124 |
| TCGTTCAA | 0.139 |
| GAATCCCA | 0.0684 |
| CAGGGCCG | -0.183 |
| AGTATAAC | 0.0515 |
| CGGAGTCA | 0.477 |
| CCCGGCTA | -0.235 |
| GGTTAACA | 0.139 |
| ATTGCTGC | -0.184 |
| CAACCCTC | -0.118 |
| ACCTTAGA | -0.0208 |
| AGAAGCTG | -0.115 |
| AGGATGCC | -0.137 |
| ACAGATTA | -0.0211 |
| AGTAGAAC | -0.0751 |
| GGATCTTA | -0.0941 |
| ATCATAAC | 0.26 |
| CCAGTAGA | 0.0795 |
| CTAGAAGC | -0.156 |

| Sequence | PBM E-score |
| --- | --- |
| AGCATTCG | -0.349 |
| AATGTGCG | -0.204 |
| ACAAAGGC | -0.232 |
| AGAACATC | -0.174 |
| GGCACTGA | -0.0198 |
| AGCTTCTG | -0.163 |
| CTAACTTC | 0.0876 |
| AACGTGCC | -0.239 |
| GCTTCAAA | -0.158 |
| GGACCTCA | -0.0461 |
| ATGAGGGC | -0.332 |
| AGCTTAAA | 0.2 |
| CGGTAAGC | -0.107 |
| AACCTATG | 0.0309 |
| GTCGCGAC | 0.222 |
| CCGCAAGC | -0.268 |
| CACGTGCA | -0.227 |
| CTTAGCAA | -0.112 |
| GAAATTCA | -0.113 |
| ACTGATTC | 0.319 |
| GACATAAC | 0.0129 |
| AGATTTTG | 0.0421 |
| CACAGAGC | -0.0104 |
| AGTGTAGG | 0.0359 |
| GGGCTACA | -0.0915 |

| Sequence | PBM E-score |
| --- | --- |
| TGCGGACA | -0.121 |
| ACTCAAGT | 0.366 |
| GCGCTTAC | -0.156 |
| AACAACAT | -0.0999 |
| CACCCGCA | -0.105 |
| CCTTAATC | 0.295 |
| CGCTGCTC | -0.243 |
| AAATTCGC | -0.0229 |
| ATCGCGTG | 0.0166 |
| CAATACAG | -0.0502 |
| CCGACAGG | -0.158 |
| CTACAATC | 0.172 |
| CGGATATA | 0.0645 |
| CTTTGGAA | 0.019 |
| CAACGCCC | -0.322 |
| CGGCTTGA | 0.115 |
| TAAACAAA | -0.0548 |
| CCAGCACC | -0.231 |
| CCTTACCA | -0.0939 |
| ACCACCCC | -0.139 |
| AATGTTAT | -0.011 |
| ACTTAAAG | 0.00013 |
